Source: the supplement of paper PMC11417369
± gives the standard deviation of the averaged measurements. The list shows a part of the results.

system: PfAP2-I AP2 domain 3 (GST-tagged); assay: gcPBM binding intensity (ln(normalized median fluorescence intensity)); higher = stronger DNA binding
Method in brief: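 Binding intensity is the highest Masliner-normalised natural-log median intensity over replicate spots in either probe orientation. To obtain it, GST-tagged P. falciparum DNA-binding domains made in E. coli were incubated for 1 h on an Agilent 4 × 180k array of primer-extended double-stranded 36-bp intergenic genomic probes plus negative controls. Detection used Alexa488 anti-GST antibody with scanning at 488 nm.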

Row | Sequence | gcPBM binding intensity (ln)
1 | TTTTTAAAATTTTTAAAAATATTATGTTAAATATAT [CACACA_negctrl_site415] | 7.61 ± 0.39
2 | ACATATGAAAAATATGCATGCAAATATTATTTAACA [TGCATGCA_site802] | 7.74 ± 0.84
3 | AAAAAAAAAAAAATCTCACACATAAAGAGATTATGA [CACACA_site4408] | 7.55 ± 0.45
4 | TTGAAAGAAAATAAAATAAAATAAAATAAAATAAAA [CACACA_negctrl_site859] | 7.69 ± 0.89
5 | ATATATATGTATTTATGTACATATTATTTTTCTTAA [XGTACX_site8169] | 7.82 ± 0.64
6 | AATAAATAAAAATATATATATATAATATACATGTGT [TGCATGCA_negctrl_site369] | 7.62 ± 0.5
7 | GGATGTATTTATATGTGTATGTGTTTGGAAATATGT [XGTACX_negctrl_site99] | 8.04 ± 0.47
8 | TTTTATTTCAATCCACAAGGGATAAAATAAAGTTTT [CACACA_negctrl_site699] | 7.36 ± 0.53
9 | ATATGGAATAATACGCGTACACACATATATATATTA [XGTACX_site307] | 8.11 ± 0.28
10 | TCTTGATTATATAGTACTACACATTATAAAAAAATT [XGTACX_site2465] | 8.06 ± 0.34
11 | TTTATATCATTACAAGTGCATATCATCATAAATTCT [GTGCAC_site9878] | 8.81 ± 0.3
12 | TATATATAAATATATGTGCACTTTTTATATTTATAT | 11 ± 0.13
13 | AAAAAATAGAATATAAAAATAAAGGAATTAAATTAA [XGTACX_negctrl_site420] | 7.33 ± 0.75
14 | AATTTTTTTTTAATCATGCACACTGTTAAAAGAATA [CACACA_site1240] | 8.49 ± 0.35
15 | TTCATATATTTAGGACGTACTTTTATATTACTATAT [XGTACX_site6456] | 7.64 ± 0.46
16 | TTTTAAAAATTAAGTGCATGTCCTTATAAAAAAAAA [TGCATGCA_site845] | 8.49 ± 0.51
17 | ATATATTGGAGCACAACACACACAAGTATATATATG [CACACA_site8435] | 8.41 ± 0.34
18 | AAAAAAAAAAAAAACACACAGAACAATATATAAATA [CACACA_site982] | 7.94 ± 0.62
19 | AAAAAAAAATACAAAATAGCAATAAATACACAAACG [GTGCAC_negctrl_site707] | 7.98 ± 0.64

Row | Sequence | gcPBM binding intensity (ln)
20 | AAAAAAAAAAAAAAAACATGCACAAATTATAAGTGA [TGCATGCA_site378] | 9.2 ± 0.46
21 | ACTACATAATACTATTCACACATTTTTTTTTTTTTT [CACACA_site5794] | 7.83 ± 0.58
22 | AATTATATAACAAATTGTACGAATGAAAATATTATT [XGTACX_site4237] | 7.78 ± 0.57
23 | TAAAAATAGGAATACGCACACGATGATTAATTTATA [CACACA_site1835] | 7.84 ± 0.5
24 | ATTTTTTTTTTTTTTTTGGGGGGGTATACTTTTAAA [CACACA_negctrl_site1020] | 11.6 ± 0.4
25 | TTCCTTTTTTTTTATTGTACAAAAATATCAAAAAGG [XGTACX_site8505] | 7.78 ± 0.2
26 | TTTTTAATTTTATATACACACATAAAATATATGAAG [CACACA_site3145] | 7.78 ± 0.49
27 | TATAATGAGGATGATAGTACGTATTAGTATAAAAAA [XGTACX_site6623] | 8.01 ± 0.64
28 | TTTATATATATTTATACACACAAACATAATACTACT [CACACA_site5161] | 7.77 ± 0.51
29 | ATAATACCCAAGCACACACACACACCGATATATATA [CACACA_site8344] | 8.43 ± 0.54
30 | AATTTATAAGAATAAAGTACTAAAGATACAACTTTA [XGTACX_site7153] | 7.53 ± 0.4
31 | TGTTATTATAACATTTTTTTCAAAATAGCTTTAGAA [CACACA_negctrl_site266] | 7.46 ± 0.56
32 | ATTAAAGGAAGCAAAACATGCAACAGCAATATTGCA [TGCATGCA_site452] | 7.79 ± 0.73
33 | ATATTTTTTGCTATTACACACAAGGGATTATTATTT [CACACA_site7776] | 8.15 ± 0.59
34 | AAGAAAAAAAATATATATGTATATATTATTTTAACA [TGCATGCA_negctrl_site534] | 7.34 ± 0.3
35 | ATGTTAATAACTTGTGGTACTGTTATAATTTAGTAA [XGTACX_site2114] | 7.71 ± 0.42
36 | TAATAATAGTCTAATACATGCATCGATAACGGAACT [TGCATGCA_site98] | 7.67 ± 0.67
37 | TATATACACATATATACACACACATATATATATATA [CACACA_site9127] | 9.24 ± 0.55
38 | ATATATCTACTGTGTTGTACTGTTAATATTTGAATA [XGTACX_site1931] | 7.81 ± 0.55

Row | Sequence | gcPBM binding intensity (ln)
39 | ATATAAGTGTATCTAACACACAAATATGTAAAAATG [CACACA_site7006] | 7.61 ± 0.59
40 | CAGGCGTGAAATATACGTACACACATTATTTATATT [XGTACX_site5337] | 8.01 ± 0.26
41 | ATATAAATTATTTACACACAAACATTTATACTTTTA [CACACA_site3448] | 7.96 ± 0.41
42 | TTTTGTTACGGCAAGGAAGTTAAGCATAAATGAATG [GTGCAC_negctrl_site173] | 7.99 ± 0.62
43 | TATTAAAAAAATGTATGTACATATATAAATTTTTTT [XGTACX_site1094] | 7.66 ± 0.33
44 | AATGATCATAAATACACACACACAAAAAAAAAAAAA [CACACA_site6072] | 7.95 ± 0.62
45 | AAAGTAAAAGAAAGCACACACACATGTATATATGTA [CACACA_site3857] | 7.87 ± 0.48
46 | GATGGATTTATTTAAAGTACATATTTAAAAAACTGT [XGTACX_site7567] | 7.7 ± 0.49
47 | TTTCTCCCATTTTTTAGTACACAAAATATATATGTA [XGTACX_site7218] | 8.42 ± 0.48
48 | AAAAAAAAAAAATATACACACACATATATATATATA [CACACA_site9123] | 9.46 ± 0.32
49 | AACAACAATTTCGTCATACACACATTCAGAATATAT [CACACA_site2371] | 7.91 ± 0.46
50 | AAAATTACTATATGAACACACATGATTAGATATATG [CACACA_site3083] | 7.63 ± 0.45
51 | TATATATATATATACACACACACCCTAAAAATATAT [CACACA_site1611] | 9.31 ± 0.27
52 | TGAAAGAATTAATTTTGTACATATAAAAATTTTATT [XGTACX_site8500] | 7.53 ± 0.4
53 | TTTTTATTTTTAAAGGCACACACATTTTTATTTTTA [CACACA_site8624] | 8.6 ± 0.25
54 | AAATGAAATTTGTATACACACAAATATATTTATATA [CACACA_site6525] | 7.53 ± 0.38
55 | TATTTGTGCCAAAAATGAAAAAGTTTGTATAAAACC [CACACA_negctrl_site1406] | 8 ± 0.63
56 | AATAAATAAATAATATAATGAAATTATAAAATGTGG [TGCATGCA_negctrl_site385] | 7.59 ± 0.45
